We go through 97 variants from a collection of fitness landscapes (doi:10.1016/j.celrep.2020.107928).

In all, about 81,000 sequences were measured (“one-hybrid fitness for binding NBS DNA”: median about -0.1, highest 2% from about 0.36 on). The list shows a part of the results.

To fix the notation:
B1: Caulobacter ParB omega fusion; a variant is named by its letters at X, in order, B8GW30 (parent)
chain: MESVVVGEPGMSEGRRGLGRGLSALLGEVDAAPAQAPGEQLGGSREAPIEILQRNPDQPRRTFREEDLEDLSNSIREKGVLQPILVRPSPDTAGEYQIVAGERAWRAAQRAGLKTVPIMVRELDDLAVLEIGIIENVQRADLNVLEEALSYKVLMEKFERTQENIAQTIGKSXSHVANXMRLLXLPDEVQSYLVSGELTAXHARAIAAAADPVALAKQIIEGGLSVRETEALARKAPNLSAGKSKGGRPPRVKDTDTQALESDLSSVLGLDVSIDHRGSTGTLTITYATLEQLDDLCNRLTRGI

Variants of B1 are the subject of this assay. In words: one-hybrid fitness for binding NBS DNA (the Noc-binding site; scaled: cognate 1, non-cognate 0); higher = stronger binding. Particulars: with NBS DNA site. The procedure, abridged:
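Bacterial one-hybrid selection in E. coli USO rpoZ- hisB- pyrF- with a HIS3 reporter carrying the site 19 bp from the promoter, screening Caulobacter ParB libraries with four specificity codons randomised (NNS). Cells grew 48 hours at 37°C on M9-minus-histidine plus 0.1 mM IPTG and 5 mM 3-AT. Plasmids before and after selection were Illumina-sequenced, three replicate libraries pooled, and variants under 10 reads dropped. Fitness is the log change in variant-to-wild-type read ratio, rescaled to cognate 1, non-cognate 0.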
Consider SRAC, for which the “one-hybrid fitness for binding NBS DNA” value is not above 0.2.
The value for PNDV was not above 0.2; that for RDID was not above 0.2; that for GHES was not above 0.2.
Then EQPR, with not above 0.2; and KRTP, with not above 0.2.
For NHTG, the “one-hybrid fitness for binding NBS DNA” value was not above 0.2.
For the variant LPRL, the “one-hybrid fitness for binding NBS DNA” value is not above 0.2.
For RFVW, the “one-hybrid fitness for binding NBS DNA” value is not above 0.2.
As to KEPE, the “one-hybrid fitness for binding NBS DNA” value was not above 0.2.
On to HVIE, for which the “one-hybrid fitness for binding NBS DNA” value is not above 0.2.
On to VECA, for which the “one-hybrid fitness for binding NBS DNA” value is not above 0.2.
As to PVQL, the “one-hybrid fitness for binding NBS DNA” value was not above 0.2.
With VLRC, the “one-hybrid fitness for binding NBS DNA” value was not above 0.2.
Take KSRM: the “one-hybrid fitness for binding NBS DNA” value was not above 0.2.
As for SCGP, the “one-hybrid fitness for binding NBS DNA” value is not above 0.2.
As to SAEA, the “one-hybrid fitness for binding NBS DNA” value was not above 0.2.
As to SWLG, the “one-hybrid fitness for binding NBS DNA” value is not above 0.2.
Regarding QYIM, the “one-hybrid fitness for binding NBS DNA” value is not above 0.2.
RLES: the “one-hybrid fitness for binding NBS DNA” value was not above 0.2.
Then PTTW, with not above 0.2; and RTFT, with 0.417; and QAKA, with 0.521.
Consider QQAK, for which the “one-hybrid fitness for binding NBS DNA” value was not above 0.2.
As to TDCC, the “one-hybrid fitness for binding NBS DNA” value was not above 0.2.
Regarding QLYN, the “one-hybrid fitness for binding NBS DNA” value was not above 0.2.
With CRQT, the “one-hybrid fitness for binding NBS DNA” value was 0.205.
With YPNE, the “one-hybrid fitness for binding NBS DNA” value is not above 0.2.
The value for ELSR was not above 0.2; that for QGTY was not above 0.2.
As for WLDG, the “one-hybrid fitness for binding NBS DNA” value was not above 0.2.
VCRG: the “one-hybrid fitness for binding NBS DNA” value is not above 0.2.
In the case of QLDD, the “one-hybrid fitness for binding NBS DNA” value is not above 0.2.
The value for VWRA was not above 0.2.
The value for MRRM was not above 0.2; that for EALL was not above 0.2; that for TFLG was not above 0.2.
Then PYMY, with not above 0.2; and ADKG, with not above 0.2; and VRKL, with not above 0.2.
As to AHIW, the “one-hybrid fitness for binding NBS DNA” value is not above 0.2.
In the case of SYTM, the “one-hybrid fitness for binding NBS DNA” value is not above 0.2.
On to KRAF, for which the “one-hybrid fitness for binding NBS DNA” value was not above 0.2.
Consider YLQT, for which the “one-hybrid fitness for binding NBS DNA” value was not above 0.2.
Then ILLF, with not above 0.2.
GHYF: the “one-hybrid fitness for binding NBS DNA” value is not above 0.2.
Then RKTP, with not above 0.2; and HHIY, with not above 0.2.
On to RQCP, for which the “one-hybrid fitness for binding NBS DNA” value is not above 0.2.
With RFWP, the “one-hybrid fitness for binding NBS DNA” value is not above 0.2.
Take KGTQ: the “one-hybrid fitness for binding NBS DNA” value was not above 0.2.
In the case of RGVT, the “one-hybrid fitness for binding NBS DNA” value was not above 0.2.
For the variant VQDS, the “one-hybrid fitness for binding NBS DNA” value was not above 0.2.
With GREG, the “one-hybrid fitness for binding NBS DNA” value is not above 0.2.
With NEHM, the “one-hybrid fitness for binding NBS DNA” value is not above 0.2.
On to DMGR, for which the “one-hybrid fitness for binding NBS DNA” value is not above 0.2.
Turning to DQPT, the “one-hybrid fitness for binding NBS DNA” value was not above 0.2.
The value for KFSY was not above 0.2; that for FKQV was not above 0.2.
Turning to HGHM, the “one-hybrid fitness for binding NBS DNA” value was not above 0.2.
Turning to RGVE, the “one-hybrid fitness for binding NBS DNA” value is not above 0.2.
Regarding TAKG, the “one-hybrid fitness for binding NBS DNA” value is not above 0.2.
On to PHGS, for which the “one-hybrid fitness for binding NBS DNA” value was not above 0.2.
Regarding HNYG, the “one-hybrid fitness for binding NBS DNA” value was not above 0.2.
On to PIIA, for which the “one-hybrid fitness for binding NBS DNA” value is not above 0.2.
Turning to PTRD, the “one-hybrid fitness for binding NBS DNA” value is not above 0.2.
On to YAIV, for which the “one-hybrid fitness for binding NBS DNA” value is not above 0.2.
In the case of SKEC, the “one-hybrid fitness for binding NBS DNA” value is not above 0.2.
NFNS: the “one-hybrid fitness for binding NBS DNA” value was not above 0.2.
Consider YTYC, for which the “one-hybrid fitness for binding NBS DNA” value is not above 0.2.
Take QTFF: the “one-hybrid fitness for binding NBS DNA” value is not above 0.2.
AQPT: the “one-hybrid fitness for binding NBS DNA” value was not above 0.2.
Turning to RWRR, the “one-hybrid fitness for binding NBS DNA” value was found to be 0.341.
On to HPRH, for which the “one-hybrid fitness for binding NBS DNA” value was not above 0.2.
As to IRAE, the “one-hybrid fitness for binding NBS DNA” value is not above 0.2.
Consider FDKC, for which the “one-hybrid fitness for binding NBS DNA” value was not above 0.2.
In the case of WDDV, the “one-hybrid fitness for binding NBS DNA” value is not above 0.2.
Then QLMP, with not above 0.2; and EYPG, with not above 0.2.
As for WQTT, the “one-hybrid fitness for binding NBS DNA” value is not above 0.2.
Take EPGC: the “one-hybrid fitness for binding NBS DNA” value is not above 0.2.
The value for EMIV was not above 0.2.
On to RFVR, for which the “one-hybrid fitness for binding NBS DNA” value was not above 0.2.
Consider PRIC, for which the “one-hybrid fitness for binding NBS DNA” value was not above 0.2.
Turning to TRKP, the “one-hybrid fitness for binding NBS DNA” value is not above 0.2.
Take WLAC: the “one-hybrid fitness for binding NBS DNA” value is not above 0.2.
The value for VDFG was not above 0.2; that for PCMD was not above 0.2; that for PIRM was not above 0.2.
As for DVRK, the “one-hybrid fitness for binding NBS DNA” value is not above 0.2.
With HIVS, the “one-hybrid fitness for binding NBS DNA” value is not above 0.2.
With SRWG, the “one-hybrid fitness for binding NBS DNA” value is not above 0.2.
For PDPA, the “one-hybrid fitness for binding NBS DNA” value was not above 0.2.
As for LSGP, the “one-hybrid fitness for binding NBS DNA” value was not above 0.2.
On to YCLT, for which the “one-hybrid fitness for binding NBS DNA” value is not above 0.2.
As for RPPC, the “one-hybrid fitness for binding NBS DNA” value was not above 0.2.
Turning to KSGF, the “one-hybrid fitness for binding NBS DNA” value was not above 0.2.
